Consider 20 variants from the RNAGym collection of RNA variant scans (doi:10.7554/elife.90254).

Read counts are not given, so values of variants with three or more changes are uncertain.

B1: LINE1-full (parent)
chain: UACGUAGGUGGUUUUCCCCUGAUAGUGCUAAGGGGGCCUGGAAGUUUGGACUGGGCAGAGCUCAACACAGCGUGGCAAAGUGGCUGUGGCUAGACUGCCUCUCUGGAUUCCUCGUCACUCAGCAGGGCAUCUCUGAGAGAAAUGCC

Variants of B1 are the subject of this data set. As to the kind of experiment: self-cleavage, relative activity (ratio to wild type); higher = more cleavage; in vitro, sequencing; the parent is a self-cleaving ribozyme.
As to UACGUAGGUGGUUUUCCCCUGAUAGUGCUAAGGGGACCUGGUAGUUUGGACUGGGCAGAGCUCAACACAGCGUGGCUAAGUGGCAGCGGCUAGACAGCCUCUCUGGAUUCCUCGUCACUCAGCAGGGCAUCUCUGAGAGAAAUGCC [G36A A42U A77U U85A U87C U96A], the self-cleavage stood at 0.03.

With UACGUAGGUGGUUUUCCCCUGAUAGUGCUAAGGGUGCCUGGAAGUUUGGACAGGGCAGAGCUCAACACAGCGUGGCAAAGUGGCUGUGGCUAGACUGCCUCUCUGGAUUCCUCGUCACUCAGCGGGGCAUCUCUGAGAGAAAUGCC [G35U U52A A124G], the self-cleavage is 1.32.

Consider UACGUAGGUGGUUUUCCCCUGAUAGUGCUAAGGGUGCCUGGAAGUUUGGACUGGGCAGAGCUCAACACAGCGUGGCAAAGUGGCAGUGGCUAGGCUGCCUCUCUGGAUUCCUCGUCACUCAGCAGGGCAUCUCUGAGAGAAAUGCC [G35U U85A A94G], for which the self-cleavage was determined as 0.13.

As for UACGUAGGUGGUUUUCCCCUGAUAGUGCUAAGGGGACCUGGAAGUUUGAACUGGGCAGAGCCCAACACAGCGUGGCAGAGUGGCUGUGGCUAGACUGCCUCUCUGGAUUCCUCUUCACUCAGCAGGGCAUCUCUGAGAGAAAUGCC [G36A G49A U62C A78G G114U], the self-cleavage was found to be 0.01.

In the case of UACGUAGGUGGUUUUCCCCUGAUAGUGCUAAGGGGACCUGGAAGUUUGGACUGGGCAGAGCUCAACUCAGCGUGGCAAAGUGGCUGUGGCUAGACUGCCUCUCUGGAUUCCUCGUCACUCAGCAGGGCAUCUCUGAGAGGAAUGCC [G36A A67U A140G], the self-cleavage amounted to 0.07.

As for UACGUAGGUGGUUUUCCCCUGAUAGUGCUAAGGGGACCUGGAAGUUUGGACUGGGCAGAGCUCAACACAGCGUGGCAAAGUGGCUGUGGCUAGACUGCCUCUCUGGGUUCCUCGCCACUCAGCAGGGCAUCUCUGAGAGAAAUGCC [G36A A107G U115C], the self-cleavage was 0.82.

Regarding UACGUAGGUGGUUUUCCCCUGAUAGUGCUAAGGGGACCUGGAUGUCUGGACUGGGCAGAGCUCAACACAGCGUGGCAAAGUGGCUGUGGCUAGACUGCCUCUCUGGAUUCCUCGUCACUCAGCAGGGCAUCUCUGAGAGAAAUGCC [G36A A43U U46C], the self-cleavage worked out at 1.4.

Turning to UACGUAGGUGGUUUUCCCCUGAUAGUGCUAAGGGGACCUGGAAGUUUGGACUGGGCAGGGCUCAACACAGCGUGGCAGAGUGGCUGUGGCUAGACUGCCUCUCUGGAUUCCUCGACACUCAGCAGGGCAUCUCUGAGAGAAAUGCC [G36A A59G A78G U115A], the self-cleavage is 0.08.

For the variant UACGUAGGUGGUUUUCCCCUGAUAGUGCUAAGGGGACCUGGAAGUUUGGACUGGGCAGAGCUCAACACAGCGUGGCAAAGUGGCUGUGGCUAGACUGCCUCUCUGGAUUCCUCGUCACUCAGCAGGGCAUCUCUGAGAGGAAUUCC [G36A A140G G144U], the self-cleavage came to 1.73.

For UACGUAGGUGGUUUUCCCCUGAUAGUGCUAAGGGGACCUGGAAGUUUGGACUGGGCAGAGCUCUACACAGCGUGGCAAAGUGGCUGUGGCUAGACUGCCUCUCUGGACUCCUCGUCACUCAGCAGGGCAUCUCUGAGAGAAAUGCC [G36A A64U U108C], the self-cleavage came out at 0.45.

Turning to UACGUAGGUGGUUUUCCCCUGAUAGUGCUAAGGGUGCCUGGAAGUUGGAACUGGGCAGAGCUCAACACAGCGUGGCAAAGUGGCUGUGGCUAGACUGCCUCUCUGGAUUCCUCGUCACUCAGCAGGGCAUCUCUGAGAGAAAUGCC [G35U U47G G49A], the self-cleavage was 1.04.

For the variant UACGUAGGUGGUUUUCCCCUGAUAGUGCUAAGGGGACCUGGAAGUUUGGACUGGGCAGAGCUCAACACUGCGUGGCAAAGUGGCUGUGGCUAGACUGCCCCACUGGAUUCCUCGUCACUCAGCAGGGCAUCUCUGAGAGAAAUGCC [G36A A69U U100C U102A], the self-cleavage amounted to 0.04.

For UACGUAGGUGGUUUUCCCCUGAUAGUGCUAAGGGGACCUGGAAGCUUGGACUGGGCAGAGCUCAACUCAGCGUGGCAAAGUGGCUGUGGCUAGACUGCCUCUCUGGAUCCCUCGACACUCAGCAGGGCAUCUCAGAGAGAAAUGCC [G36A U45C A67U U109C U115A U134A], the self-cleavage turned out to be 0.03.

With UACGUAGGUGGUUUUCCCCUGAUAGUGCUAAGGGGACCUGGAAGUUUGGACUGGGCGGUGCCCAACACAGCGAGGCAAAGAGGCUGUGGCUAGACUGCCUCUCUGGAUUCCUCGUCACUCAGCAGGGCAUCUCUGAGAGAAAUGCC [G36A A57G A59U U62C U73A U81A], the self-cleavage was 0.02.

Regarding UACGUAGGUGGUUUUCCCCUGAUAGUGCUAAGGGUGCCUGGAAGUUUGGACUGGGCAGAGCCCAACACAGCGUGGCAAAGUGGCAGUGGCUAGACUGCCUCUCUGGAUUCCUCGUCACUCGGCAGGGCAUCUCCGAGAGAAAUGCC [G35U U62C U85A A121G U134C], the self-cleavage amounted to 0.04.

As to UACGUAGGUGGUUUUCCCCUGAUAGUGCUAAGGGGACCUGGAAGUUUGGACCGGGCAGAGCUCAACACAGCGUGGCAAAGUGGCUGUGGCUAGACUGCCUCUCAGGAUUCCUCGUCACUCAGCAGGGCAUCUCUGAGAGAAAUGCC [G36A U52C U104A], the self-cleavage was determined as 1.08.

UACGUAGGUGGUUUUCCCCUGAUAGUGCUAAGGGGACCUGGAAGUUUGGACUGGGCAGAGCUCAACACAGCGUGGCAGAGUGGCUGUGGCUAGACCGCCUCUCUGGAUUCCUCGUCACUCAGCAGGGCAUCUCUGAGAGAAAUGCC [G36A A78G U96C]: the self-cleavage is 0.07.

For the variant UACGUAGGUGGUUUUCCCCUGAUAGUGCUAAGGGGACCUGGAAGUUUGGACUGGGCAGAGCUCAACACAGCGUGGCAAAGUGGCUGUGGCUAGACUGCCUCUCUGGAUUCCUCGUCACUCAGCAGAGCAUCUCUGAGGGAAAUGCC [G36A G126A A138G], the self-cleavage amounted to 1.15.

On to UACGUAGGUGGUUUUCCCCUGAUAGUGCUAAGGGGACCUGGAGGUUUGGACUGGGCAGAGCUCAACACAGCGUGGCAAAGUGGCUGUGGCUAGACUGCCUCUCUGGAUUCCUCGUCACUCAGCAGGGCACCUCUGAGAGAAGUGCC [G36A A43G U130C A142G], for which the self-cleavage worked out at 1.29.

Regarding UACGUAGGUGGUUUUCCCCUGAUAGUGCUAAGGGGACCUGGAAGUUUGGACUGGGCAGGGCUCAACACAGCGAGGCAAAGUGGCUGUGGCUAGACUGCCUCUCUGGAUUCCUCGUCACUCAGCAGGGCACCUCUGAGAGAAAUGCC [G36A A59G U73A U130C], the self-cleavage turned out to be 0.16.
